Results: PubChem BioAssay AID1671194 (National Center for Advancing Translational Sciences (NCATS), 2021)
In all, about 140,000 compounds went through this assay and about 240 (0.17%) were called active. The shares of active, inactive and inconclusive entries below differ from those in the screen. Calls follow the shape of the dose curve; as a rule, active = well fitted inhibition curve with a large enough effect; inconclusive = small, poorly fitted or top-dose-only effect; inactive = no such curve, though single readings can be large or run the other way. Potencies of inconclusive entries are doubtful fits and often do not repeat.

Test: Primary qHTS assay for inhibitors of alpha-synuclein gene (SNCA) expression; also: nearly all actives have a fitted effect of over 45% in size;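 as to activity change, negative = inhibition: plate controls were DMSO cells for no effect and cell-free wells for full effect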
Details: HEK-293 SNCA-luciferase knock-in, luminescence, 24 h; activity change, negative = inhibition: at 57.2 µM (top of the series) unless noted
Potency is read from the fitted curve at half-maximal effect; tags tell the direction and shape of the fitted curve.

Structure (SMILES) | activity change, negative = inhibition | Potency
N[C@@H]1CC[C@H](C(=O)N2CCC(Oc3cccc(C(F)(F)F)c3)CC2)C1 | inactive: 8.85% | 
O=C(c1ccc(Cl)cc1)N1CC2(CCCN(Cc3ccccn3)C2)Cc2ccccc21 (stereo not drawn) |  | inconclusive: 14.1 µM [inhibitor, partial curve, poor fit]
c1cnc2c(c1)ccc1cccnc12 |  | inconclusive: 28.2 µM [inhibitor, partial curve, poor fit]
Cc1ccc(C2=NC3(CCN(C(=O)c4ccco4)CC3)ON2)cc1 | inactive: 104% | 
COc1cccc(CN2CCCCCCNC(=O)CC2c2ccccc2)c1OC (stereo not drawn) |  | inconclusive: 39.8 µM [inhibitor, single point]
COc1cc(OC)c(N(C)C(=O)CSc2c3c(nc4ccc(Cl)cc24)CCCC3)cc1Cl |  | inconclusive: 25.1 µM [inhibitor, single point]
Nc1ccc2ncnc(N3CCCCC3)c2c1 |  | inconclusive: 25.1 µM [inhibitor, partial curve, poor fit]
c1ccc2oc(CN3Cc4[nH]cnc4C[C@H]3c3nc(-c4ccc5c(c4)OCO5)no3)cc2c1 |  | inconclusive: 2.51 µM [inhibitor, partial curve, poor fit]
COc1ccc(F)cc1-c1ccc(COc2ccc3c(cnn3CCC(=O)O)c2)cc1 | inactive: -8.28% [at 87.6 µM] | 
COCCCn1c(C)cc(C(=O)N2CC(c3noc(COc4ccc(F)cc4)n3)C2)c1C | inactive: -1.25% | 
CCCCN1C(=O)c2ccccc2C(C(=O)NCCc2ccc(OC)cc2)C12CCCCC2 (stereo not drawn) | inactive: -8.78% | 
CCN1C(=O)c2ccccc2Sc2ccc(NC(=O)c3cccc(C)c3)cc21 |  | inconclusive: 0.891 µM [inhibitor, full curve, poor fit]
O=C(NCC1CC1)c1cccc(OC2CN(Cc3ccc(F)cc3Cl)C2)c1 |  | inconclusive: 22.4 µM [inhibitor, single point]
COc1ccc(NC(=O)Cn2c(N3CCc4ccccc4C3)nc(C)cc2=O)cc1OC | inactive: -15.9% | 
Cc1noc2c(NCC3CCOCC3)cc(-c3cccnc3)nc12 | inactive: 2.64% [at 87.6 µM] | 
O=C(c1cccnc1)N1CCC(c2cc(-c3ccc(F)cc3)n[nH]2)CC1 |  | inconclusive: 11.2 µM [inhibitor, partial curve]
CCn1ncc(N2CCC(NC(=O)Cc3cccc(OC)c3)CC2)cc1=O |  | inconclusive: 4.47 µM [inhibitor, single point]
COc1ccc(CN2CCNc3cc(Nc4ccccc4)ncc3C2)cc1O |  | inconclusive: 1 µM [inhibitor, full curve, poor fit]
Cc1ccc(Cl)cc1NC(=O)CSCc1cnn(-c2ccccc2)c1-n1cccc1 |  | inconclusive: 39.8 µM [inhibitor, single point]
O=C(NC1CCc2nn(CC3CC3)c(=O)n2CC1)c1ccc2cc[nH]c2c1 (stereo not drawn) |  | inconclusive: 2.82 µM [inhibitor, partial curve, poor fit]
Cc1ccc(NC(=O)Nc2ccc(C)n(CC(=O)N3CCC(C)CC3)c2=O)cc1 | inactive: 21.5% | 
COc1ccc(CC(=O)N2CC[C@@H](CC(=O)O)[C@@H](CCN3CCOCC3)C2)cc1 | inactive: -12.7% [at 87.6 µM] | 

Structure (SMILES) | activity change, negative = inhibition | Potency
CC(C)(C)CC(=O)Nc1cnc(-c2cccc(Cl)c2)nc1 |  | inconclusive: 22.4 µM [inhibitor, partial curve, poor fit]
O=S(=O)(NCC(c1ccco1)N1CCN(c2ccc(F)cc2)CC1)c1cc(F)ccc1F (stereo not drawn) |  | inconclusive: 31.6 µM [inhibitor, single point]
CCCNC(=O)N1CCC(N2C(=O)C(OC)C23CCOCC3)CC1 (stereo not drawn) | inactive: 13.7% | 
Cc1cc(CN2CCn3c(nnc3-c3ccc(Cl)cc3)C2)no1 | inactive: 1.42% | 
CN1CCC(CNc2ccc3ncc(-c4cccc(OC(F)(F)F)c4)n3n2)CC1 |  | inconclusive: 3.04 µM [inhibitor, full curve, poor fit]
CN(C)c1ccc(-c2ccnc(N[C@H]3CO[C@H]4[C@@H]3OC[C@H]4OC(=O)NCc3ccccc3)n2)cc1 | inactive: -22% | 
CC(=O)N1CCCC1c1nc(C2CN(Cc3cc(F)c(F)cc3F)C2)no1 (stereo not drawn) |  | inconclusive: 3.16 µM [inhibitor, partial curve, poor fit]
CN1CCN(C(=O)C2CCc3nnc(-c4cccc(C(F)(F)F)c4)n32)CC1 (stereo not drawn) | inactive: -27.6% | 
COC(=O)[C@H](Cc1ccc(OC)cc1)NC(=O)[C@H]1CN(C(=O)c2ccc(N(C)C)cc2)CCN1C(=O)C1CCCCC1 |  | inconclusive: 44.7 µM [inhibitor, single point]
O=C(CC[C@H]1NC(=O)c2ccccc2NC1=O)Nc1nnc(Cc2ccccc2)s1 | inactive: -25.6% | 
CCS(=O)(=O)N1CCC2(CC1)OC(=O)C(C)=C2C(=O)NCc1ccc(OC)c(OC)c1 |  | inconclusive: 1 µM [inhibitor, full curve, poor fit]
CC1=C[C@@H](CNC(=O)c2ccncc2)[C@H](C(C)C)C[C@H]1Cc1nnc(-c2ccncc2)o1 |  | inconclusive: 56.2 µM [inhibitor, single point]
CN(CCc1ccccn1)C(=O)CCC[C@@H]1[C@H]2CCCN3CCC[C@@H](CN1C(=O)c1cccnc1)[C@@H]23 |  | inconclusive: 8.91 µM [inhibitor, single point]
COc1ccc(C(=O)N2CCC(c3nn(-c4ccc(OC)cc4)c(=O)[nH]3)CC2)cc1 |  | inconclusive: 3.55 µM [inhibitor, single point]
Cc1cc(C)cc(OCC(=O)N(Cc2ccco2)Cc2ccccc2Cl)c1 |  | inconclusive: 39.8 µM [inhibitor, single point]
Cc1ccc(-c2nc(-c3cccs3)c(-c3cccs3)[nH]2)cc1 | inactive: 1.78% | 
Cc1nnn2c(C(=O)N(C)C)cccc12 | inactive: 22.3% [at 87.6 µM] | 
CCCS(=O)(=O)N1CCC(N2C(=O)[C@H](OCCOC)[C@@H]2c2ccncc2)CC1 |  | inconclusive: 8.91 µM [inhibitor, single point]
COCCOc1ccc2c(n1)CCN(C(=O)c1ccc(C(C)C)cc1)C2 | inactive: 69.1% | 
O=C(CCC1CCN(c2cc(NC3CC3)ncn2)CC1)NCCN1CCCCC1 |  | inconclusive: 1 µM [inhibitor, full curve, poor fit]
CCN(CC)CCNC(=O)c1c(-c2ccccc2)cc(=O)n2c1CCC2 | inactive: 36.2% | 
